Laboratory results as given in the antibiotic and cytotoxicity screens of Wong et al. (2023).
The other results are listed elsewhere or left out.

Each compound was assayed on HSkMC (human skeletal muscle cells) (assay: cytotoxicity call (relative viability < 0.9)). Settings: 10 µM.

Compound	cytotoxicity call
Cc1ccc(S(=O)(=O)Nc2ccc3c(c2)C(=O)N([C@@H](C)CO)C[C@@H](C)[C@H](CN(C)S(=O)(=O)c2ccccc2)O3)cc1	inactive
C[C@H]1CN([C@@H](C)CO)C(=O)Cc2cc(NC(=O)CCCN(C)C)ccc2O[C@H]1CN(C)S(=O)(=O)c1ccc(F)cc1	inactive
C[C@@H]1CN([C@@H](C)CO)C(=O)c2cccc(NS(=O)(=O)c3cccs3)c2O[C@@H]1CN(C)Cc1ccc(-c2ccccc2)cc1	inactive
C[C@H](CO)N1C[C@H](C)[C@@H](CN(C)S(=O)(=O)c2ccc(F)cc2)Oc2c(NC(=O)Nc3cccc4ccccc34)cccc2C1=O	inactive
C[C@H](CO)N1C[C@H](C)[C@H](CN(C)Cc2ccc3c(c2)OCO3)Oc2c(NC(=O)Nc3cccc4ccccc34)cccc2C1=O	inactive
C[C@@H]1CN([C@H](C)CO)C(=O)c2c(c3ccccc3n2C)-c2ccccc2CO[C@@H]1CN(C)C(=O)CCC(F)(F)F	inactive
CCOC(=O)C(=O)N(C)CC(OC)OC	inactive
C[C@H](CO)N1C[C@H](C)[C@@H](CN(C)C(=O)Nc2ccc3c(c2)OCO3)Oc2ccc(NC(=O)Nc3cccc4ccccc34)cc2CC1=O	inactive
C[C@H]1CN([C@@H](C)CO)C(=O)c2cccc(NC(=O)Nc3cccc4ccccc34)c2O[C@@H]1CN(C)S(=O)(=O)c1ccc(F)cc1	inactive
CO[C@@H]1CN(C)C(=O)c2ccc(NS(=O)(=O)c3ccccc3C)cc2OC[C@@H](C)N(S(C)(=O)=O)C[C@H]1C	inactive
Cc1cc(-c2ccc(N=Nc3ccc4c(S(=O)(=O)[O-])cc(S(=O)(=O)[O-])c(N)c4c3O)c(C)c2)ccc1N=Nc1ccc2c(S(=O)(=O)[O-])cc(S(=O)(=O)[O-])c(N)c2c1O.[Na+].[Na+].[Na+].[Na+]	active
COc1ccc(NC(=O)N(C)C[C@H]2Oc3ccc(NS(C)(=O)=O)cc3C(=O)N([C@@H](C)CO)C[C@@H]2C)cc1	inactive
Cc1cccc(C)c1NC(=O)c1ccccc1C(=O)O	inactive
O=C(C[C@H]1C=C[C@@H](NC(=O)CN2CCOCC2)[C@H](CO)O1)NCc1cccc(F)c1	inactive
CC1=NN(c2ccc(C)c(C)c2)C(=O)C1=NNc1cccc(-c2cccc(C(=O)O)c2)c1O	inactive
CCOC(=O)[C@H](Cc1c[nH]c2ccccc12)NC(=O)Cn1cc(CN2C(=O)COC[C@H]2c2ccccc2)nn1	inactive
CO[C@H]1CN(C)C(=O)c2cc(NC(=O)Nc3ccccc3F)ccc2OC[C@H](C)N(Cc2ccccc2C(=O)O)C[C@H]1C	inactive
C[C@@H]1CCCCO[C@H](CN(C)C(=O)Nc2cccc3ccccc23)[C@@H](C)CN([C@@H](C)CO)C(=O)c2cc(NC(=O)Nc3ccc(C(F)(F)F)cc3)ccc2O1	inactive
C[C@@H](O)C#Cc1cnc2c(c1)C(=O)N([C@@H](C)CO)C[C@H](C)[C@@H](CN(C)Cc1cncnc1)O2	inactive
C[C@@H]1CCCCO[C@@H](CN(C)C(=O)Nc2ccc3c(c2)OCO3)[C@H](C)CN([C@@H](C)CO)C(=O)c2cc(NS(=O)(=O)c3ccc(F)cc3)ccc2O1	inactive
CC[N+](CC)(CC)CCOc1ccc(C=Cc2ccccc2)cc1	inactive
C[C@@H]1CN([C@H](C)CO)S(=O)(=O)c2ccc(Br)cc2O[C@@H]1CN(C)Cc1ccc(C(=O)O)cc1	inactive
C[C@H](CO)N1C[C@H](C)[C@@H](CN(C)S(=O)(=O)c2ccc(Cl)cc2)Oc2c(NS(C)(=O)=O)cccc2C1=O	inactive
C[C@H](CO)N1C[C@H](C)[C@@H](CN(C)C(=O)c2cccc(F)c2)Oc2cc(-c3cncnc3)ccc2S1(=O)=O	inactive
C[C@@H]1CN([C@H](C)CO)S(=O)(=O)c2ccc(C3=CCCC3)cc2O[C@@H]1CN(C)C(=O)c1cnccn1	inactive
COc1ccc(NC(=O)N(C)C[C@@H]2OCCCC[C@@H](C)Oc3ccc(NS(=O)(=O)c4c(C)noc4C)cc3C(=O)N([C@H](C)CO)C[C@H]2C)cc1	inactive
COC1=CC(=O)c2ccccc2C1=O	inactive
C[C@@H]1COCC(=O)N1	inactive
C[C@@H]1CN([C@@H](C)CO)C(=O)CCCn2nncc2CO[C@H]1CN(C)C(=O)Nc1ccccc1C(F)(F)F	inactive
CN1C(=O)c2cc(NS(=O)(=O)c3cccc(F)c3)ccc2OC[C@H]2O[C@@H](CC(=O)NCCN3CCCCC3)CC[C@H]21	inactive
